Measurements: PubChem BioAssay AID1460 (National Center for Advancing Translational Sciences (NCATS), 2008)
Values joined by “and” are separate entries in the source; they are usually repeats but may differ in a detail not shown here. Identical values can stand only once. Out of some 270,000 compounds screened, about 5,800 (2.1%) were called active. Inconclusive results, whose numbers are uncertain, are shown with a selection of clear calls. Calls come from the whole dose curve; as a rule, active = well fitted inhibition curve with a large enough effect; inconclusive = small, poorly fitted or top-dose-only effect; inactive = flat fitted curve, though single readings scatter. Potencies beside an inconclusive call are fits to weak or partial responses and may not hold up.

The compounds below were run against Microtubule-associated protein tau (Homo sapiens) (UniProt P10636) (assay: qHTS for Inhibitors of Tau Fibril Formation, Thioflavin T Binding). Details: recombinant tau K18 P301L (four-repeat tau fragment), heparin-induced fibrillization, ThT fluorescence; series mostly up to 57.4 µM.
In short: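 Recombinant human tau K18 fragment […] carrying P301L, 15 uM unlabeled plus 0.24 uM Alexa 594-labeled, was fibrillized with 20 uM heparin in 100 mM sodium acetate pH 7 for 6 hr at 37 C; 30 uM ThT fluorescence read after 1 hr.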
Note: nearly all actives have a fitted effect of over 55% in size.
Potency is the fitted concentration of half-maximal effect; tags give direction and shape of the fitted curve.

Sequence of UniProt P10636 (P10636 whole entry, looked up, the tested form may be a part): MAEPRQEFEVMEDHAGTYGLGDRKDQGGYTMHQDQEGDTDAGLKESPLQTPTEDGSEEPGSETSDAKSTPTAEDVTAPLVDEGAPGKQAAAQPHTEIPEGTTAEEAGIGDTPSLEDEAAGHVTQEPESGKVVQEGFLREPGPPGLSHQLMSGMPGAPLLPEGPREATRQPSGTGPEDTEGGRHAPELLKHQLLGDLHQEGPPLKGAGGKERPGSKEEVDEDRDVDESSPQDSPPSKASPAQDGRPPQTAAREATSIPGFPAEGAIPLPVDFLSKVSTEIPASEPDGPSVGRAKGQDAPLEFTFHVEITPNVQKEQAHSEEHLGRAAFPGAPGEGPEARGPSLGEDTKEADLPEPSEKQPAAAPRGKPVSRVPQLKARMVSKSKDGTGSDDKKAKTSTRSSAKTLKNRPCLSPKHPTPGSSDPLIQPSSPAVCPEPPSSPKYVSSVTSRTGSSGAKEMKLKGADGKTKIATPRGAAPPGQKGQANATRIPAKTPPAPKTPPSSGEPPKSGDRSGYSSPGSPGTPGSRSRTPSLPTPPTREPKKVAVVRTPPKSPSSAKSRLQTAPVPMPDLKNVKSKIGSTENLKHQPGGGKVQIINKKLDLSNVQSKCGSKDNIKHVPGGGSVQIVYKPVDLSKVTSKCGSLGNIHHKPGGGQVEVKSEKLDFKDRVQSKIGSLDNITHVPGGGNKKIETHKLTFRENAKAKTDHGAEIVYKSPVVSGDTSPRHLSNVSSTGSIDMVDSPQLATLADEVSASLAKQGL

| SMILES | Potency |
| --- | --- |
| CS(=O)(=O)c1ccc2nc(NC(=O)c3cc4ccccc4o3)sc2c1 | inconclusive: 22.4 µM [activator, single point] |
| Cn1c(=O)n(C)c2cc(N3CCOCC3)c(NC(=O)c3ccc(C(C)(C)C)cc3)cc21 | inconclusive: 11.2 µM [inhibitor, partial curve] |
| O=C(Nc1nc2ccccc2s1)c1ccc(OCC2CCCO2)cc1 (configuration not stated) | inconclusive: 28.2 µM [activator, single point] |
| COc1ccc(-c2nc3sc(CCNC(=O)C(=O)Nc4cc(F)ccc4F)c(C)n3n2)cc1 | inactive |
| O=C(N/N=C/C=C/c1ccc([N+](=O)[O-])cc1)C1COc2ccccc2O1 (configuration not stated) | active: 4.47 µM |
| O=C(NCc1ccc2c(c1)OCO2)C1CCC(CNS(=O)(=O)c2ccc(Cl)cc2)CC1 (configuration not stated) | inactive |
| COc1cc([N+](=O)[O-])ccc1NC(=O)N1CCC2(CC1)Nc1ccccc1-n1cccc12 | inconclusive: 10 µM [inhibitor, partial curve, poor fit] |
| Nc1c(C(=O)NCc2ccco2)c2nc3ccccc3nc2n1CCc1ccccc1F | inconclusive: 22.4 µM [inhibitor, single point] |
| Cc1cccc(CCNC(=O)c2cc3c(=O)[nH]c4ccc(C)cc4c3s2)c1 | inactive |
| CCN(CC)c1ccc(NC(=O)c2cc(OC)cc(OC)c2)c(C)c1 | inconclusive: 25.1 µM [inhibitor, partial curve] |
| N/C(=C\C(=O)c1cc(Cl)ccc1O)C(Cl)(Cl)Cl | active: 17.8 µM |
| COc1cc(/C=C2\SC(=S)N(C(Cc3ccccc3)C(=O)O)C2=O)ccc1O (configuration not stated) | active: 11.2 µM |
| CCOC(=O)c1c(NC(=O)C2CCCCC2C(=O)O)sc2c1CCCCC2 (configuration not stated) | inconclusive: 25.1 µM [inhibitor, single point] |
| COc1ccc(-c2cc(C(F)(F)F)n3ncc(-c4ccccc4)c3n2)cc1 | inconclusive: 7.08 µM [inhibitor, partial curve] |
| CCC1CCc2c(sc3ncnc(N4CCOCC4)c23)C1 (configuration not stated) | inactive |
| CCOC(=O)C1=C(C)n2c(s/c(=C/c3cccc([N+](=O)[O-])c3)c2=O)=NC1c1ccc(O)c(OC)c1 (configuration not stated) | active: 14.1 µM |
| O=C(COc1ccccc1/C=C\c1[nH]c(=O)[nH]c(=O)c1[N+](=O)[O-])Nc1ccccc1 | inconclusive: 10 µM [inhibitor, partial curve] |
| CCOc1ccc(CN2C(=O)C(=O)c3cccc(C)c32)cc1OC | inconclusive: 31.6 µM [inhibitor, partial curve] |
| O=C1CC(N2CCN(c3ccccc3Cl)CC2)C(=O)N1c1cccc(F)c1 (configuration not stated) | inactive |
| CC(=O)NC1(NC(C)=O)CCN(C)CC1 | inactive |
| CSc1ccc(CNC(=O)c2sc3ncnc(N(C)C4CCCCC4)c3c2C)cc1 | inconclusive: 11.2 µM [inhibitor, partial curve] |
| CCc1cccc(N2C(=O)CS(=O)(=O)C23C(=O)N(Cc2ccccc2)c2ccc(C)cc23)c1 (configuration not stated) | inactive |
| COc1cc(OC)c(NC(=O)CCc2nc(-c3ccc(C)cc3)no2)cc1Cl | inconclusive: 8.91 µM [inhibitor, single point] |
| COc1ccc(-n2nnc(-c3nsc(NC(=O)c4cccc(C)c4)n3)c2C)cc1OC | inconclusive: 0.398 µM [inhibitor, full curve] |

| SMILES | Potency |
| --- | --- |
| CC1CCc2c(sc3nc(CN4CCOCC4)nc(Sc4ccccc4)c23)C1 (configuration not stated) | inactive |
| Fc1ccc(C(NCCc2ccc(Cl)cc2)c2nnc(-c3ccccc3Cl)o2)cc1 (configuration not stated) | inconclusive: 14.1 µM [inhibitor, partial curve] |
| Cc1cccc(-c2nc3cc([N+](=O)[O-])ccc3o2)c1 | inconclusive: 0.282 µM [inhibitor, full curve, poor fit] |
| CC1(C)CC(=O)C=C(NC2=CC3OC(c4ccccc4)OCC3OC2=O)C1 (configuration not stated) | active: 17.8 µM |
| CCOC(=O)c1ccc(-n2c(CN3CCC(O)CC3)nc3ccc([N+](=O)[O-])cc3c2=O)cc1 | inconclusive: 14.1 µM [inhibitor, partial curve] |
| CC(OC(=O)c1ccc(S(=O)(=O)NCc2ccco2)cc1)C(=O)Nc1ccc(Cl)cn1 (configuration not stated) | inactive |
| Cc1cc(C(=S)N2CCOCC2)c(C)n1-c1ccc(Cl)cc1 | inactive |
| Cc1c(C)c2ccc(OCC(=O)N3CCOCC3)c(C)c2oc1=O | inactive |
| COc1ccc(N=C2NC(=O)S/C2=C\c2ccc(N(C)C)cc2)cc1 | active: 1.12 µM |
| COc1cc(C)c(C(=O)Oc2cc(C)c(C(=O)O)c(O)c2C)c(OC)c1C | inconclusive: 25.1 µM [inhibitor, single point] and inconclusive: 708 nM [inhibitor, full curve] |
| Cc1ccc(N2CCN(Cc3nnc(-c4ccccc4F)o3)CC2)c(C)c1 | inconclusive: 39.8 µM [inhibitor, single point] |
| CC(C)(C)c1ccc2c(c1)N(CC(=O)O)C(=O)CO2 | inactive |
| O=C1NN(c2ccc(F)cc2)C(=O)/C1=C/c1cccs1 | inconclusive: 28.2 µM [inhibitor, partial curve] |
| Cc1cc(C)c(NC(=O)CSc2nc(=O)n(Cc3cccnc3)c3c2CCC3)c(C)c1 | inactive |
| CC(=O)Nc1ccc(/C=C2/Sc3ccccc3C2=O)cc1 | inconclusive: 0.891 µM [inhibitor, full curve] |
| COc1ccc2c(c1)C(=NO)c1cc(OC)ccc1-2 | active: 0.708 µM |
| COc1cc2c(cc1OC)/C(=C/C#N)NC(C)(C)C2 | inconclusive: 25.1 µM [inhibitor, single point] |
| COc1ccc(C(=O)NC(=S)Nc2ccc(Cc3ccncc3)cc2)cc1 | inconclusive: 4.47 µM [inhibitor, partial curve] |
| CCNC(=O)N1c2ccc(OC)cc2C(C)=CC1(C)C | inconclusive: 28.2 µM [inhibitor, partial curve] |
| CC(C)CNC(=S)NC(=O)c1ccc([N+](=O)[O-])cc1 | inactive |
| COc1cc(/C=C\c2ccc(OC)cc2OC)cc(OC)c1 | inconclusive: 12.6 µM [inhibitor, partial curve] |
| Cc1ccc2nc3sc(C(=O)Nc4ccc(N5CCOCC5)cc4)c(N)c3cc2c1 | active: 2 µM |
| CC1=NN(c2ccccc2)C(=O)C1/C=C1\NC(=S)NC1=O (configuration not stated) | inconclusive: 15.8 µM [inhibitor, single point] |
| Cn1c(SCC(=O)Nc2nc3ccccc3s2)ncc(C(=O)Nc2ccc(Cl)cc2)c1=O | inconclusive: 12.6 µM [inhibitor, partial curve] |

| SMILES | Potency |
| --- | --- |
| COc1ccc(C2=NN(C(N)=S)C(c3ccco3)C2)cc1 (configuration not stated) | inconclusive: 14.1 µM [inhibitor, partial curve] |
| CCCCc1ccc(-c2csc(/C(C#N)=C\c3ccco3)n2)cc1 | inconclusive: 14.1 µM [inhibitor, partial curve] |
| OC(COC(c1ccccc1)c1ccccc1)CN1CCOCC1 (configuration not stated) | inactive |
| Clc1cccc(-c2nc3ccccn3c2Nc2ccc3c(c2)OCCO3)c1 | inconclusive: 3.55 µM [inhibitor, full curve] |
| COC(=O)c1ccc(Nc2nc(-c3ccccc3Cl)nc3ccccc23)cc1 | inactive |
| c1ccc(-c2c[nH]c3[n+]2CCCCC3)cc1 | inactive |
| CCOc1ccccc1C(=O)N/N=C/c1c[nH]c2ccccc12 | inconclusive: 10 µM [inhibitor, partial curve] |
| COC(=O)/C=C1\N/C(=N\c2nc(C)cc(C)n2)N(c2ccccc2)C1=O | inconclusive: 3.16 µM [inhibitor, full curve] |
| Cc1ccc(NS(=O)(=O)c2ccc(OCC(=O)NCc3ccco3)cc2)cc1 | inactive |
| Cc1ccccc1NC(=O)CNc1ccccc1N1CCCCC1 | inconclusive: 35.5 µM [inhibitor, single point] |
| O=C(C1CCC(Cn2c(=O)c3sccc3n(Cc3cccc(F)c3)c2=O)CC1)N1CCOCC1 (configuration not stated) | inactive |
| COc1ccc(Cl)cc1NC(=S)NNC(=O)c1cccs1 | inconclusive: 28.2 µM [inhibitor, partial curve] |
| Cc1nc2ccccn2c1C(=O)NC1CCCC1 | inconclusive: 2.51 µM [inhibitor, partial curve, poor fit] |
| COc1ccc2nc(NC(=O)C3CCN(S(=O)(=O)c4cccc5nsnc45)CC3)sc2c1 | inconclusive: 12.6 µM [inhibitor, partial curve] |
| Cc1ccc(Cl)cc1N(C)C(=O)c1cc2c(Cl)nc3ccccc3c2s1 | inactive |
| NS(=O)(=O)c1ccc(N=Nc2c(-c3ccccc3)[nH]n(-c3nc(-c4ccccc4)cs3)c2=O)cc1 | active: 1.78 µM |
| CCC(c1nnnn1Cc1ccc(OC)cc1)N1CCN(c2ccc(OC)cc2)CC1 (configuration not stated) | inconclusive: 20 µM [inhibitor, partial curve] |
| CCN(CC)c1ccc(C=C2C(=O)OC(C)(C(C)(C)C)OC2=O)cc1 (configuration not stated) | inactive |
| c1ccc2c(SCc3cn4ccccc4n3)nncc2c1 | inactive |
| COCCNC(=O)Nc1ccc2nc(-c3cccs3)c(-c3cccs3)nc2c1 | inconclusive: 15.8 µM [inhibitor, partial curve] |
| Cc1ccc(NC(=O)Cn2cc(C(=O)c3ccco3)c3ccccc32)cc1C | inconclusive: 8.91 µM [inhibitor, partial curve] |
| O=C(Nc1sc2c(c1C(=O)O)CCCC2)c1cccs1 | inconclusive: 12.6 µM [inhibitor, partial curve] |
| O=C1NC(=O)c2cc(Nc3ccccc3)c(Nc3ccccc3)cc21 | active: 14.1 µM |
| CC(/C=N/n1c(-c2ccco2)n[nH]c1=S)=C\c1ccco1 | inconclusive: 14.1 µM [inhibitor, partial curve] |
